From the supplement of paper PMC9446081 come the findings set out here.

The campaign covered roughly 39,000 compounds. About 220 (0.56%) showed activity. This is one part of the list.
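Further: static incubation at 37 °C against the wild-type strain, values averaged over two biological replicates.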

The test deals with Escherichia coli K-12 BW25113. The test can be described thus: relative growth (OD600 normalised to plate interquartile mean) (fraction); higher = less growth inhibition, active = 0.2 or less. To be noted: 50 µM; LB; incubation time: overnight (16-24 h).
`CC(C)NC(=O)N(C)C[C@H]1Oc2ccc(NS(=O)(=O)c3cn(C)cn3)cc2C(=O)N([C@@H](C)CO)C[C@@H]1C`: the relative growth was inactive: 0.999. In the case of `O=C(C[C@@H]1C[C@@H]2c3cc(NS(=O)(=O)c4ccc(F)cc4)ccc3O[C@@H]2[C@@H](CO)O1)N1CCCCC1` it was inactive: 1; in that of `Cc1noc(C)c1NC(=O)Nc1ccc2c(c1)C(=O)N([C@H](C)CO)C[C@H](C)[C@@H](CN(C)C(=O)Nc1ccccc1)OCCCC[C@H](C)O2`, inactive: 0.971; in that of `C[C@@H]1CCCCO[C@H](CN(C)S(=O)(=O)c2ccc(Cl)cc2)[C@H](C)CN([C@H](C)CO)C(=O)c2cc(NC(=O)NC3CCCCC3)ccc2O1`, inactive: 1.03. As to `C[C@H]1CN([C@@H](C)CO)C(=O)c2ccccc2-c2ccccc2CO[C@@H]1CN(C)C(=O)Nc1ccc(F)cc1`, the relative growth was inactive: 0.987. With `N=C(N)N.O=C(O)O`, the relative growth is inactive: 1.

Consider `COc1ccccc1CNC(=O)C[C@@H]1C[C@H]2c3cc(NC(=O)Nc4ccc(C(F)(F)F)cc4)ccc3O[C@H]2[C@@H](CO)O1`, for which the relative growth was inactive: 0.993. Take `C=CCOC[C@@H]1CN(C)Cc2nnn(C)c21`: the relative growth was inactive: 0.998. In the case of `O=C(C[C@@H]1C[C@@H]2c3cc(NC(=O)c4ccc5c(c4)OCO5)ccc3O[C@@H]2[C@@H](CO)O1)NCc1ccccn1` it was inactive: 1.02; in that of `C/C=C/c1ccc2c(c1)O[C@@H](CN(C)C(=O)c1ccc3c(c1)OCO3)[C@H](C)CN([C@H](C)CO)S2(=O)=O`, inactive: 0.997; in that of `Cc1noc(C)c1NC(=O)Nc1ccc2c(c1)C(=O)N([C@H](C)CO)C[C@H](C)[C@@H](CN(C)CC1CC1)OCCCC[C@@H](C)O2`, inactive: 0.995. In the case of `CN(C)Cc1cn(CC[C@@H]2CC[C@@H](NC(=O)Cc3cccnc3)[C@H](CO)O2)nn1` it was inactive: 0.991; in that of `C[C@H]1CN([C@@H](C)CO)C(=O)c2cc(NS(=O)(=O)c3cn(C)cn3)ccc2O[C@@H]1CN(C)CC1CCCCC1`, inactive: 0.998; in that of `Cc1noc(C)c1S(=O)(=O)Nc1cccc2c1O[C@@H](CN(C)S(=O)(=O)c1cn(C)cn1)[C@@H](C)CN([C@H](C)CO)C2=O`, inactive: 0.974. As for `COc1ccc(S(=O)(=O)N(C)C[C@H]2Oc3c(NS(=O)(=O)c4ccc(F)cc4)cccc3C(=O)N([C@@H](C)CO)C[C@H]2C)cc1`, the relative growth is inactive: 0.994. In the case of `COc1cccc(C#Cc2ccc3c(c2)O[C@H](CN(C)S(=O)(=O)c2ccccc2F)[C@@H](C)CN([C@@H](C)CO)S3(=O)=O)c1` it was inactive: 1.01; in that of `CC(C)NC(=O)N[C@H]1CC[C@H](CCN)O[C@H]1CO`, inactive: 1.01. In the case of `O=C(Oc1cc(O)cc2c1C[C@@H](OC(=O)c1cc(O)c(O)c(O)c1)[C@@H](c1cc(O)c(O)c(O)c1)O2)c1cc(O)c(O)c(O)c1`, the relative growth was inactive: 0.82. As to `C[C@H]1CN([C@@H](C)CO)C(=O)c2cccc(NC(=O)CCCCCC(=O)Nc3ccccc3N)c2O[C@H]1CN(C)C(=O)Nc1ccc(C(F)(F)F)cc1`, the relative growth is inactive: 1.01.

For `Cc1ccc(S(=O)(=O)Nc2ccc3c(c2)C(=O)N([C@@H](C)CO)C[C@@H](C)[C@@H](CN(C)Cc2ccc(Cl)c(Cl)c2)OCCCC[C@@H](C)O3)cc1`, the relative growth was inactive: 1.02. In the case of `CC(C)[C@@H](CS(=O)(=O)C(C)C)N1C(=O)[C@@](C)(CC(=O)O)C[C@H](c2cccc(Cl)c2)[C@H]1c1ccc(Cl)cc1` it was inactive: 1; in that of `C[C@@H]1CN([C@H](C)CO)C(=O)c2cccc(NC(=O)c3ccncc3)c2O[C@@H]1CN(C)Cc1ccc(-c2ccccc2)cc1`, inactive: 0.996; in that of `Cc1noc(C)c1S(=O)(=O)N(C)C[C@H]1OCCCC[C@H](C)Oc2ccc(NC(=O)Nc3ccc(F)cc3)cc2C(=O)N([C@@H](C)CO)C[C@@H]1C`, inactive: 1.03. The value for `O=C(C[C@H]1C[C@H]2c3cc(NC(=O)Nc4ccc(C(F)(F)F)cc4)ccc3O[C@H]2[C@H](CO)O1)NCc1ccc(Cl)cc1` was inactive: 0.973.

On to `C[C@@H]1CN([C@H](C)CO)C(=O)c2c(c3ccccc3n2C)-c2ccccc2CO[C@@H]1CN(C)Cc1ccc(Oc2ccccc2)cc1`, for which the relative growth was inactive: 1.01. The value for `CN(C)CCCNC(=O)C[C@@H]1CC[C@H]2[C@@H](COc3ccc(NC(=O)c4ccc5c(c4)OCO5)cc3C(=O)N2C)O1` was inactive: 0.996; that for `Cc1noc(C)c1NC(=O)Nc1ccc2c(c1)C(=O)N([C@H](C)CO)C[C@@H](C)[C@@H](CN(C)C(=O)Nc1ccccc1)OCCCC[C@@H](C)O2` was inactive: 1.02; that for `CO[C@H]1CN(C)C(=O)c2ccc(NC(=O)c3ccccc3)cc2OC[C@@H](C)N(C(=O)CN(C)C)C[C@@H]1C` was inactive: 0.994. In the case of `Cc1cc(C(=O)Nc2cccc3c2O[C@@H](CN(C)Cc2ccncc2)[C@@H](C)CN([C@H](C)CO)C3=O)n(C)n1`, the relative growth was inactive: 1.

For the molecule `C[C@H](CO)N1C[C@H](C)[C@@H](CN(C)Cc2ccc(Oc3ccccc3)cc2)Oc2ccc(NC(=O)NC3CCCCC3)cc2C1=O`, the relative growth is inactive: 1.01. In the case of `Cc1ccc(S(=O)(=O)Nc2ccc3c(c2)C(=O)N([C@@H](C)CO)C[C@@H](C)[C@H](CN(C)C(=O)Cc2ccccc2)OCCCC[C@@H](C)O3)cc1` it was inactive: 1.01. In the case of `COc1ccc2nccc(Cl)c2c1` it was inactive: 0.986; in that of `O=C(NCCn1ncc2c(=O)n(Cc3ccccc3)cnc21)c1ccc(S(=O)(=O)N2CCOCC2)cc1`, inactive: 0.985. The value for `C[C@H]1CN([C@@H](C)CO)C(=O)c2cc(C#Cc3cccc(F)c3)cnc2O[C@H]1CN(C)C(=O)C1CCOCC1` was inactive: 0.823; that for `C[C@@H]1CCCCO[C@@H](CN(C)CC2CCCCC2)[C@@H](C)CN([C@H](C)CO)C(=O)c2cc(NC(=O)CCCN(C)C)ccc2O1` was inactive: 0.982; that for `Cc1ccc(S(=O)(=O)N(C)C[C@@H]2OCCCC[C@@H](C)Oc3ccc(NC(=O)Nc4ccc(C(F)(F)F)cc4)cc3C(=O)N([C@H](C)CO)C[C@H]2C)cc1` was inactive: 0.983. As to `C[C@@H]1CN([C@H](C)CO)S(=O)(=O)c2ccc(-c3ccc(C(=O)N(C)C)cc3)cc2O[C@H]1CN(C)C(=O)C1CCC1`, the relative growth was inactive: 0.987. On to `C[C@H]1CN([C@@H](C)CO)C(=O)c2cc(NC(=O)c3ccncc3)ccc2O[C@H]1CN(C)C(=O)Nc1ccc2c(c1)OCO2`, for which the relative growth was inactive: 1. As for `C[C@H]1CN([C@@H](C)CO)C(=O)c2cc(NC(=O)Cc3ccccc3)ccc2O[C@H]1CN(C)Cc1ccc(C(=O)Nc2ccccc2N)cc1`, the relative growth is inactive: 1.01. `COc1ccc(NC(=O)N(C)C[C@@H]2Oc3ccc(NS(=O)(=O)c4c(C)noc4C)cc3C(=O)N([C@@H](C)CO)C[C@@H]2C)cc1`: the relative growth is inactive: 0.997. In the case of `Cc1ccc(S(=O)(=O)N(C)C[C@@H]2Oc3c(NS(=O)(=O)c4ccc(F)cc4)cccc3C(=O)N([C@@H](C)CO)C[C@@H]2C)cc1` it was inactive: 1.01; in that of `COc1ccc(CN(C)C[C@@H]2OCCCC[C@@H](C)Oc3ccc(NC(=O)Nc4ccc5c(c4)OCO5)cc3C(=O)N([C@H](C)CO)C[C@H]2C)cc1`, inactive: 1. In the case of `Oc1cc(O)cc(O)c1` it was inactive: 1; in that of `COc1ccc(S(=O)(=O)Nc2ccc3c(c2)CC(=O)N([C@@H](C)CO)C[C@@H](C)[C@H](CN(C)S(=O)(=O)c2ccccc2)O3)cc1`, inactive: 1.01; in that of `CCc1c(O)cc(O)c(C(=O)c2ccc(OCCN3CCOCC3)c(OC)c2)c1CC(=O)N(CCOC)CCOC`, inactive: 0.937. As to `CC(C)(C)NCCCCOc1ccc(Cl)cc1C(C)(C)C`, the relative growth was inactive: 0.798. Consider `C[C@H]1CCCCO[C@@H](CN(C)Cc2ccc(C(F)(F)F)cc2)[C@@H](C)CN([C@@H](C)CO)C(=O)c2cc(NS(=O)(=O)c3cn(C)cn3)ccc2O1`, for which the relative growth was inactive: 0.987. The value for `CC(C)NC(=O)N(C)C[C@H]1OCCCC[C@@H](C)Oc2ccc(NC(=O)Nc3ccccc3)cc2C(=O)N([C@H](C)CO)C[C@@H]1C` was inactive: 0.992; that for `COc1ccc(CN(C)C[C@@H]2OCCCC[C@@H](C)Oc3ccc(NS(=O)(=O)c4ccc(C)cc4)cc3C(=O)N([C@H](C)CO)C[C@@H]2C)cc1` was inactive: 0.971; that for `CO[C@@H]1[C@H](O[P@@](=O)(OC[C@H]2O[C@@H](n3cnc4c(N)ncnc43)C[C@@H]2O)SCOC(=O)OC(C)C)[C@@H](CO)O[C@H]1n1ccc(=O)[nH]c1=O` was inactive: 1.01. The value for `COc1ccc(OC)c(C(O)CNC(=O)CN)c1.Cl` (centres undefined) was inactive: 1.12. In the case of `Cc1cc(C(=O)O)c(C#N)c(N)n1` it was inactive: 0.955. On to `C[C@H]1CN([C@@H](C)CO)C(=O)c2cccc(NC(=O)Nc3ccc(F)cc3)c2O[C@H]1CN(C)Cc1ccc(C(F)(F)F)cc1`, for which the relative growth is inactive: 1.01.

In the case of `COc1c(OCCCN2CCOCC2)ccc2c1N=C(NC(=O)c1cnc(N)nc1)N1CCN=C21`, the relative growth is inactive: 0.996.

Take `C[C@H](CO)N1C[C@H](C)[C@@H](CN(C)CC2CCCCC2)Oc2ccc(NS(=O)(=O)c3cn(C)cn3)cc2CC1=O`: the relative growth was inactive: 1.03.

Regarding `COc1ccc(S(=O)(=O)Nc2ccc3c(c2)C(=O)N([C@H](C)CO)C[C@@H](C)[C@H](CN(C)Cc2ccncc2)O3)cc1`, the relative growth is inactive: 0.987. For `C[C@@H]1CCCCO[C@H](CN(C)Cc2ccc(Cl)c(Cl)c2)[C@@H](C)CN([C@@H](C)CO)C(=O)c2cc(NS(=O)(=O)c3ccc(Cl)cc3)ccc2O1`, the relative growth is inactive: 1.03. The value for `C[C@@H]1CN([C@H](C)CO)C(=O)c2cc(NS(=O)(=O)c3ccccc3)ccc2O[C@@H](C)CCCCO[C@H]1CN(C)C(=O)Nc1ccc2c(c1)OCO2` was inactive: 1.02; that for `COc1ccc(cc1)NC(=O)N1CC[C@]2(CC1)CN([C@H](CO)c1[nH]c3cc(ccc3c12)OC)C(=O)CN1CCOCC1` was inactive: 1.
